Reference: PubChem BioAssay (NCI)
“And” between values parts separate entries of the source, which are not always exact repeats. Equal entries are not always repeated.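 All cell lines were grown in 96-well plates and treated with compound for 48 hours. At the GI50, growth is halved. TGI is the concentration that stops growth completely.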 Square brackets hold non-standard residues; d marks the D form. Peptide text beside a SMILES is read from it. * marks the point of attachment. Iva = CC[C](C)(N)C(=O)O; Boc = CC(C)(C)OC(=O)*; X48 = C1CCC(=NO*)C1

tested on: NCI-H322M lung; assay: growth of human tumour cells (NCI), 48 h

Structure (SMILES)	TGI	GI50 [µM]
Nc1nc(Cl)c(/C=N\O)c(NCC2(CO)CCC2)n1	> 100 µM	–
CC1(C)CC2=C(Sc3ccccc3N2)C(=O)C1C(=O)C(=O)Nc1cccc([N+](=O)[O-])c1 (stereo unspecified)	> 100 µM	–
COc1cc(C2SCC(=O)N2c2ccc(-n3c(-c4ccccc4)nc4ccccc4c3=O)cc2)cc(OC)c1OC (stereo unspecified)	> 100 µM	–
C=C1C(=O)OC2C1CCC(C)C1C=CC(=O)C12C (stereo unspecified)	17.9 µM	–
N#Cc1ccc2c(c1)C(=O)c1c-2n(CCCCl)c(=O)c2cc([N+](=O)[O-])ccc12	> 100 µM	> 100
O=C1/C(=C/c2ccc(OC(=O)c3ccccc3)cc2)CCC/C1=C\c1ccc(OC(=O)c2ccccc2)cc1	> 100 µM	–
COc1cccc(/C=C/[N+](=O)[O-])c1	30.3 µM	14.4
NC1CCC(Nc2nc(NCc3ccc(-c4ccccc4O)nc3)c3ncn(C4CCCC4)c3n2)CC1 (stereo unspecified)	1.17 µM	0.0284
COc1ccc(-c2cc(-c3ccc(Cl)cc3)nc(SCCCC(=O)NO)n2)cc1	6.32 µM	0.816
Cn1c(=O)n2n(c1=O)C(S(=O)(=O)c1ccccc1)C2 (stereo unspecified)	> 100 µM	–
CN(C)CCNC(=O)c1cccc2nc3cc(Cl)ccc3nc12	10.4 µM	–
C=C1C(C2(C)C(OC(C)=O)CC(=O)OC(C)(COC(C)=O)C2CC(=O)OC)C(OC=O)C(OC(=O)C(O)C(C)CC)C2(C)C(c3ccoc3)CC(=O)C12O (stereo unspecified)	> 100 µM	–
O=S(=O)(c1ccccc1)C(c1ccc2ccccc2n1)S(=O)(=O)c1ccccc1	> 100 µM	–
COc1ccc(P2(=S)Oc3ccccc3-c3ccccc3O2)cc1	> 100 µM	–
CC(C)(C)[Si](C)(C)Oc1cc(CO)cc2c1cc(=N)o[n+]2[O-]	> 10 µM	–
COc1ccc(/C(=N\NC(=O)C(=O)NN)C(c2ccc(OC)cc2)C2(O)C(=O)Nc3ccccc32)cc1 (stereo unspecified)	> 100 µM	–
O=C(Nc1ccccc1)c1cc2ccccc2c(N=Nc2ccc([N+](=O)[O-])cc2)c1O	> 100 µM	–
C#CC1(OC(C)=O)CCC2C3CC=C4C=C(OC(C)=O)CCC4(C)C3CCC21C (stereo unspecified)	79.3 µM	–
C1CSCCSCCSCCSC1	> 100 µM	–
COc1cc(/C=C2\N=C(c3ccccc3)N(c3nc4cc(C)c(C)cc4s3)C2=O)ccc1O	> 100 µM	–
CN(C)CCCNc1ccc2c(=O)n(CCN(C)C)c(=O)n3c4ccccc4c(=O)c1c23	0.315 µM	–
O=C1Cc2c([nH]c3ccccc23)-c2ccccc2N1	98.4 µM	–
COC(=O)[C@]12CC[C@H]3CC[C@H]([C@H]31)[C@H](c1ccccc1)N2	42.2 µM	–
C[C@]12CC[C@@H]3c4cc(-c5ccc(F)cc5)c(O)cc4CC[C@H]3[C@@H]1CC[C@@H]2O	23.2 µM	11.1

Structure (SMILES)	TGI	GI50 [µM]
O=C(CCc1nnc2s/c(=C\c3ccc(Cl)c(Cl)c3)c(=O)n12)Nc1ccc(Cl)c(Cl)c1	> 100 µM	–
Cc1cc(C)nc(NS(=O)(=O)c2ccc(NNc3c4ccccc4nc4c(C(=O)Nc5ccc(S(N)(=O)=O)cc5)cccc34)cc2)n1	> 100 µM	–
c1ccc2c(NCCCCCCNc3c4ccccc4nc4ccccc34)c3ccccc3nc2c1	1.96 µM	–
CC1CN=C(Nc2ccccc2)S1 (stereo unspecified)	> 100 µM	–
CCOP(=O)(OCC)/C(=C/NC(=S)c1ccncc1)C(=O)OC	> 100 µM	–
C=C1C(=O)O[C@H]2[C@H]1CC/C(COC(=O)C(=O)c1cn(C)c3ccc(Cl)cc13)=C\CC[C@@]1(C)O[C@@H]21	4.34 µM	2.04
O=S(=O)(NCCCNc1nccc(-c2c(-c3ccc(F)c(O)c3)nc3sccn23)n1)c1ccc(F)cc1	6.8 µM	2.35
COc1cccc(/C=C2\CCCc3ccccc3C2=O)c1	42.7 µM	–
NC(=O)c1cc2ccc(O)cc2o/c1=N/NC(=O)c1ccccc1	> 100 µM	–
C=C(CN1CCN(c2cccc(C(F)(F)F)n2)CC1)c1ccc(C(=O)Nc2ccccc2N)cc1	> 100 µM	–
Cc1ccc2c(-c3ccnc(Nc4ccccc4)n3)c(-c3ccc(F)cc3)nn2n1	> 25 µM	5.82
CC(C)(Oc1ccccc1)C(=O)Sc1c(-c2ccccc2)c(=O)n(-c2ccccc2)c(=S)n1-c1ccccc1	49.4 µM	–
CCC(C)(NC(=O)C(C)NC(=O)OC(C)(C)C)C(=O)NC(C)C(=O)NC(C)(CC)C(=O)ON=C1CCCC1 (stereo unspecified) (Boc-A[Iva]A[Iva]-X48; configuration not given here)	> 100 µM	–
CCOC(=O)CCC(NC(=O)c1ccc(Oc2nc3ccccc3nc2-c2ccccc2)cc1)C(=O)OCC (stereo unspecified)	> 100 µM	–
CC(O)c1cc2c(s1)C(=O)c1ccsc1C2=O (stereo unspecified)	0.699 µM	–
COC(=O)c1cc2c3ccccc3n3c(=O)c4cc5ccccc5nc4c(n1)c23	> 100 µM	> 100
CCCCCCc1ccc(C(=O)NO)cc1	> 100 µM	–
C[C@]12CC[C@H](OC3OC(CO)C(O)C(O)C3O)C[C@H]1CC[C@@H]1[C@@H]2CC[C@]2(C)[C@@H](C3=CCOC3=O)CC[C@]12O (stereo partly specified)	50 µM and > 100 µM	> 100
c1cc(N2CCCN(c3ccc(C4=NCCCN4)cc3)CC2)ccc1C1=NCCCN1	> 100 µM	> 100
CCCN(CCC)c1ccc(/C=C/c2ccc3cc(OCC)ccc3n2)cc1	> 100 µM	> 100
CCOC(=O)Cc1ccc2c(c1O)C(=O)c1c(ccc(CC(=O)OCC)c1O)C2=O	> 100 µM	–
Cc1ccccc1NC(=O)c1c(C)oc2c1C(=O)c1ccccc1C2=O	> 100 µM	–
O=C1c2ccccc2CN1c1ccc(OCCN2CCCCC2)cc1	> 10 µM	–
N#CC1C(=O)SC2c3ccccc3C(=O)c3ccccc3C12 (stereo unspecified)	> 10 µM	–

Structure (SMILES)	TGI	GI50 [µM]
COc1ccc(-c2cc(=O)c3ccccc3o2)cc1N	> 100 µM	–
c1ccc(N=C(Nc2ccccc2)N2CCCC2)cc1	> 100 µM	–
N#CC1=C(N)Oc2c(ccc3ccccc23)C1c1ccccc1 (stereo unspecified)	20.4 µM	0.0879
O=C1O/C(=C\c2ccccc2)N(c2ccccc2)C1=O	> 100 µM	–
COc1cc2cc3c4cc(OC)c(OC)cc4cc[n+]3cc2cc1OC	> 100 µM	–
CCC(C(=O)C(=O)C(CC)P1(=O)OC(C)(C)CN1C(C)(C)C)P1(=O)OC(C)(C)CN1C(C)(C)C (stereo unspecified)	> 100 µM	–
Clc1ccc(OCc2nnc(CCCCCCCCc3nnc(COc4ccc(Cl)cc4Cl)n3Nc3ccccc3)n2Nc2ccccc2)c(Cl)c1	> 100 µM	–
C#CCOCn1cnc2c(Sc3c([N+](=O)[O-])ncn3C)ncnc21	> 100 µM	–
O=[N+]([O-])c1ccc(N=Nc2c(O)ccc3ccccc23)c([N+](=O)[O-])c1	> 100 µM	–
COc1cc(-c2ccc(-c3ccc(C(=N)N)nc3)s2)cc(OC)c1OC	11.9 µM	3.23
CC1=C[C@]2(O)C(=O)[C@H](C)C[C@H]3[C@@H](CC[C@@](C)(O)/C=C\2C1=O)C3(C)C	> 100 µM	–
CC1=C(C(=O)Nc2ccc(Cl)c(Cl)c2)C(c2cccc(Cl)c2)NC(=O)N1 (stereo unspecified)	1.88 µM	0.197
COc1ccc(NC([Se])=NC23CC4CC(CC(C4)C2)C3)cc1	9.73 µM	2.35
O=C(O)NC(c1ccccc1)C(NC(=O)c1ccccc1)c1ccccc1 (stereo unspecified)	> 100 µM	–
Cc1cc(=O)oc2c(C)c(O)ccc12	> 100 µM	–
COc1ccc2c3c([nH]c2c1[N+](=O)[O-])C(C)N(Cc1ccc([N+](=O)[O-])cc1)CC3 (stereo unspecified)	43.7 µM	–
O=C(Nc1ccc(Cl)cc1Cl)C1C(=O)C(=O)N(c2ccc(Cl)cc2Cl)C1=O (stereo unspecified)	> 100 µM	–
CCCC[C@H]1[C@@H](OCOc2ccccc2)COC(=O)N1[C@H](C)c1ccccc1	73.6 µM	–
COc1ccccc1C(O)(c1ccccc1)C(O)(c1ccccc1)c1ccccc1OC (stereo unspecified)	> 100 µM	–
Cc1cc(C)c(S(=O)(=O)N2CCCN(S(=O)(=O)c3c(C)cc(C)cc3C)OCCCO2)c(C)c1	> 100 µM	–
O=C(O)C1CCCCC1C(=O)Nn1cnnc1 (stereo unspecified)	> 100 µM	–
COC(=O)c1ccccc1C1CN=NC12Cc1ccccc1C2=O (stereo unspecified)	> 100 µM	–
CC(C)(C)OCC1NC(=O)[C@@H]2Cc3c([nH]c4ccccc34)C(c3ccccc3)N2C1=O (stereo partly specified)	> 50 µM	–
COc1ccc(S(=O)(=O)NC(CCC(=O)NN)C(=O)NN)cc1 (stereo unspecified)	> 100 µM	–

Structure (SMILES)	TGI	GI50 [µM]
CCN(Cc1ccccc1)c1ccc(CO)c(Cl)c1	> 95.9 µM	9.94
C=C1C(=O)O[C@@H]2[C@@H]3O[C@@H](C[C@@H]13)[C@](C)(O)CC/C=C(\C)CCC[C@@H]2C	34.7 µM	–
O=S(CC1(O)CCCCC1)c1ccccc1 (stereo unspecified)	> 100 µM	–
C=C(NC(=O)C(=C)NC(=O)c1csc(C2=NC3c4csc(n4)C4NC(=O)c5csc(n5)C(C(C)(O)C(C)O)NC(=O)C5CSC(=N5)C(=CC)NC(=O)C(C(C)O)NC(=O)c5csc(n5)C3(CC2)NC(=O)C(C)NC(=O)C(=C)NC(=O)C(C)NC(=O)C(C(C)CC)NC2C=Cc3c(C(C)O)cc(nc3C2O)C(=O)OC4C)n1)C(N)=O (stereo unspecified)	> 100 µM	76.7
C=C(C)[C@@H]1CC[C@]2(C(=O)O)CC[C@]3(C)[C@H](CC[C@@H]4[C@@]5(C)CCC(NC(=O)c6cccc(OC(C)=O)c6OC(C)=O)C(C)(C)[C@@H]5CC[C@]43C)[C@@H]12 (stereo partly specified)	3.69 µM	0.791
Cc1nc2sc(C(=O)Nc3cccc4ccccc34)c(N)c2cc1C(O)c1ccccc1 (stereo unspecified)	52.6 µM	0.318
O=C1O[C@H](c2ccccc2)[C@@H]2CC3(CCN12)OCCO3	> 100 µM	–
COC(=O)c1ccc(NC(=O)O/N=C(\Cl)C(C)C)cc1	30.1 µM	–
CC(=Nc1ccccc1)C1=C(O)C(Cc2ccc(O)cc2)NC1=O (stereo unspecified)	> 100 µM	0.363
CC(C)[O-].CC(C)[O-].O=C1C=C([O-])C(=O)c2ccccc21.O=C1C=C([O-])C(=O)c2ccccc21.[Ti+4]	> 100 µM	> 90.4
Nn1c(CCCCCCCCc2nnc(COc3ccc4ccccc4c3O)n2N)nnc1COc1ccc2ccccc2c1O	> 100 µM	–
Cc1cccc(C)c1NC(=O)C(=O)CC(=O)/C=C/c1ccccc1	> 100 µM	–
CC1=CC[C@H](C(C)C)C(C(O)[C@@H](C)O[Si](c2ccccc2)(c2ccccc2)C(C)(C)C)C1=O (stereo partly specified)	65.1 µM	–
CNC(=O)c1ccc(N2C(=S)N(c3ccc(C#N)c(C(F)(F)F)c3)C(=O)C2(C)C)cc1F	> 100 µM	> 53.5
Cc1n[nH]c(=O)n1/N=C/c1ccc(F)cc1	> 100 µM	–
C=CCN1C(=O)/C(=C\c2cc(C(C)(C)C)c(O)c(C(C)(C)C)c2)NC1=S	> 100 µM	–
C/C(=N\n1c(Cc2ccccc2)n[nH]c1=O)c1ccccc1	> 100 µM	–
c1ccc(C2=NCCN2)c(C2=NCCN2)c1	> 100 µM	–
CC(=O)[C@@H]1C/C(=C\OCc2ccccc2)O[C@H]1C	> 100 µM	–
CN1CC(=O)N(C)c2ncn(Cc3ccccc3)c2C1=O	> 100 µM	–
COc1ccc(-c2c3c(cc4cc5c(cc24)OCO5)C(=O)OC3)cc1OC	> 100 µM	–
